# Reference: the RNAGym collection of RNA variant scans (doi:10.1093/nar/gkz1192)
# The source gives no read counts; variants with many changes may rest on few reads.
# B1: CPEB3 Ribozyme (parent)
# chain: UAACAGGGGGCCACAGCAGAAGCGUUCACGUCGCAGCCCCUGUCAGAUUCUGGUGAAUCUGCGAAUUCUGCUGUAUAUCUC
# Variants of: B1
# Experiment: self-cleavage, relative activity (ratio to wild type); higher = more cleavage; in vitro, sequencing
# How it was run: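 Relative activity was defined as the cleaved/total read fraction for a variant divided by the same fraction for the unmutated ribozyme. CPEB3 self-cleaving ribozyme libraries were made by rounds of error-prone PCR, barcoded, and transcribed in vitro with T7 RNA polymerase for 5 hours at 37°C, and cleavage ran through transcription plus a 15 min DNase I step before EDTA. Illumina sequencing of template-switched reverse transcripts gave the reads, and DNA sequencing mapped the barcodes. Averages come from three batches, using variants with at least 5 reads.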
row,Variant,self-cleavage
1,C29U U31A U43C U49A U54C U58A,0.05
2,A28U A35G U41A U72C,0.17
3,U31C A35U U60C U69A,0.14
4,U31A G33A U43A,0.15
5,A28G U31C C32G U43C U60C U78C U80A,0.14
6,U31A A56G U66C,0.26
7,G30U U41G U76A,0.11
8,C29U U41C A64G,0.53
9,A28G U72A U78C,0.31
10,C29U U51G A77U,0.28
11,G30A U31C U72A,0.18
12,A28U U54A A56G,0.55
13,U31C C32U U67C,0.31
14,A28U A35G U69A,0.76
15,U31A U41C A56G,0.35
16,A28U A35U U43A C44U U54A A64G,0.13
17,A28U U58C C62A U78C,0.16
18,U31A G33U U54C,0.17
19,U31A G33A A56G,0.08
20,U31C A47G C50U U60C U76C,0.11
21,A28U G30C A35G A56G U78C,0.07
22,U31C A47G A56G G73C U76C,1.21
23,U31C C38U C44U A75G A77U,0.06
24,C29A G52C U54A G73C,0.89

row,Variant,self-cleavage
1,A28U U43C A65G A77G,0.15
2,C29U A35G A65G U78C,0.65
3,U31C A45U U66A,0.18
4,A28U U31A C40U U48C U72A,0.19
5,U31C C32U C38G,0.11
6,U31C C71G A75U,0.57
7,A28G U31C U66C,0.14
8,G30C G36A U48A,0.07
9,G30C A57U U78C,0.07
10,G30U U43G U58C A77U U80C,0.08
11,U31C C32G C38U U69C,0.05
12,G30A U66C U69C A75U,0.09
13,C29A U67C U80C,0.13
14,G30U U48C G53A A64U,0.21
15,A28U C40U U67A,0.16
16,A28U C39A A45C U58C,0.13
17,A28U C40A U69C,0.09
18,A28U U72A U78C,0.27
19,A28G U31A U43G,0.39
20,A28U A35U A57G U67A A77U,0.11
21,G30U A35U C38U U51A U58C U69C U80A,0.05
22,A28G U51A G61A U69A,0.2
23,C29G U41A C59G,0.09
24,U31A A56G C71G,0.09

row,Variant,self-cleavage
1,A28G U54A A57G U66C,0
2,U31C C40U U69G U76C,0.13
3,C29G A35G U49C U51C U69A,0.19
4,U31A C38U U58C U69C,0.07
5,U31C A65G U67C,0.35
6,U31A C38A U69G,0.09
7,A28U C40G U41C U58C,0.09
8,A28U C38U U49C U54A U76C,0.12
9,U31A U41A U54C U72C,0.13
10,A28U C40U U49C U54C A56G A65G,0.07
11,U31A U41C U43C G53A,0.3
12,U31C A64G U74A,0.81
13,C29U A35U A57G,0.2
14,A28G U31G A45G A47U U49C G70A A77U,0.1
15,A28G U31C G36A,0.11
16,U31C C32U A35U U41C U66C U76G,0.09
17,A28G U31A A64U,0.49
18,C29A A56U U60C U67C,0.1
19,U31C A45C U78C,0.19
20,U31C A47G C50U U58C U76A,0.95
21,A28G U43A U69C U80A,0.31
22,C29A U48A U49C U78C U80A,0.07
23,G30A A35U A64G,0.1
24,U31C C37A U48C U60G U74A,0.08

row,Variant,self-cleavage
1,U31A A56G U72A U78A,0.4
2,C29G A47U U49C A56C U78C,0.08
3,U31A U43C U60C U72G,0.15
4,A28G U72C U78C,0.69
5,U31A A35G U41G A45G U58C,0.08
6,U31A A57G A64U,0.1
7,A28U U31C A45G U67A,0.1
8,G30A G33A A64G U69C,0.13
9,U31A U51C A57G,0.4
10,G30A U49C U72C,0.17
11,A28U C40A G63U,0.22
12,U31C A45G U66A,0.13
13,C29U U66C A75U U78C,0.16
14,U31A U41C U48C,0.19
15,C29U C40U U58C,0.23
16,C29U A64U G70U,0.07
17,A28U A57G U76C,0.51
18,C29U A35G U43C U54C A64U,0.08
19,U31A C32U U51C,0.22
20,U31A U41C U60A A65U U66G U69C,0.15
21,A28U U31G U51C,0.64
22,A28G U31G A35G U69A,0.24
23,A28G U48C A65G,0.16
24,G30A U54A A64G U66A,0.14

row,Variant,self-cleavage
1,U31C A35C C59A,0.1
2,A28U C29U A65G,0.09
3,A28G U66C U74C,0.33
4,A28U C32G U58A,0.06
5,C29U U51G A65G A77U,0.17
6,G30A A57G U74A,0.14
7,C29U U49C A56U U72C,0.2
8,A28G U66C A75U,0.08
9,U31C C40A U51C,0.09
10,U31C C40A U41C C62U U67C,0.07
11,U31A U41G A56G U60C A64G U76C,0.03
12,A28G U49A U54C,0.21
13,U31A U49C U72G,0.49
14,A28G U41G A75G,0.34
15,C29U U41C U76C,0.54
16,C29A U58A U78A,0.2
17,U31A U43A U48C U49C,0.19
18,G30A A35U U60A,0.1
19,A28U U41A A47G U72C,0.13
20,G30A A35G U49C U72A U78C,0.06
21,U31A A35G G42C U49A,0.08
22,U31C A35U U76A U80C,0.36
23,U31C C39U U78C,0.37
24,A28G U51C U72C C81U,0.8

row,Variant,self-cleavage
1,C29A U51A U74C,0.54
2,U31C A35G U41A U49A U67C U74G,0.06
3,U31C C37U U43C A45G U51C U80C,0.07
4,U31C C39G U51C U69A C71G,0.07
5,A28G U60C U74C A77G,0.22
6,C29G G33A U41C,0.12
7,A28U A56G A77U,0.73
8,A28U U60A A65G,0.3
9,G30A A45U U72C,0.1
10,C29U U41C U54C U76C,0.52
11,A28U U76A A77G,0.76
12,C29U A45G A47G A57G,0.09
13,G30A A35U U67A,0.15
14,C29U U31G U67C,0.11
15,A28U U51A U58C,0.25
16,U31A U49C C62A A64U,0.14
17,U31C A35G U48A U54A U76C,1.02
18,C29U U43A U66C U78C U80C,0.1
19,A28G U43C U74G,0.31
20,A28G U41C C62U,0.12
21,U31C A57C U58A,0.11
22,G30C G36A U41C U60C A64G,0.14
23,C29U A35G C38G U51C U58C U74C A75G,0.31
24,C29G C32G U51C,0.18

row,Variant,self-cleavage
1,A28G U48C U72C,0.26
2,A28U C39G A47C U72A,0.09
3,G30A U69C U74A,0.15
4,U31A U41C U69C C79U,0.25
5,A28G U43C U54A,0.46
6,A28U U43C U51C,0.64
7,G30U A45G U48C U54A,0.06
8,A28U U60A U72C,0.33
9,A28G G55A U60C,0.16
10,A28U C34U U48C,0.45
11,U31C C37A A77G U78A,0.19
12,A28U A56G A64U U80C,0.31
13,A28U U43C A45G U72C,0.5
14,U31A C34G C44U U69C,0.26
15,U31C A35G G53U A57G,1.21
16,U31A A35U U43C U80A,0.1
17,U31C G33A U41A C71A,0.11
18,U31C A56G U69A,0.25
19,A28G U60A A75U U80C,0.42
20,A28U A35U A75C,0.44
21,A28U U41A A45U A57G U58C,0.15
22,U31A C50U A65G,0.16
23,A28U C32A A47U U51A U54C U60C U72C,0.05
